Assay results published in PubChem BioAssay (NCI).
Some compounds were tested as several samples or in several runs, with calls that do not always agree.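 48-hour exposure, single concentration, 96-well plates; percent growth endpoint where 0 means no net growth. Active: below 10.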 For part of its entries the source gives two or more results. Only these are listed. There may be further records. These are repeated runs of one drug, at the concentration stated with the values; each value is one run. Marks such as (2×) stand for listed records that agree.

System: CCRF-CEM leukemia
Assay: NCI-60 one-dose screen, 48 h (100 = growth as untreated, 0 = no growth, -100 = all killed)

With `COc1cccc2c1C(=O)c1c(O)c3c(c(O)c1C2=O)C[C@@](O)(C(=O)CO)C[C@@H]3OC1CC(N)C(O)C(C)O1` (stereo not given in full) the growth (0.25 µM, runs of 2015) was “inactive: 35.1, 42.1, 35.5, 29.5, 34.3 (2×), 35.4, 33.3, 32.8, 35.9, 36.6, 39.1, 40.2 (2×), 27.2 (2×), 28.8 (2×), 37.6, 26.8, 24.9 (2×), 68.1, 66.1, 13, 12.3, 17.2, 14.3, 22.2 (2×), 39.4, 17.3, 16, 10.5, 14.1, 20.2, 24, 21.7 (2×), 37.8, 21.9, 28 (3×), 18.9, 32.2, 19.7, 17.9, 22.5, 18.6, 30.4, 52.9, 24.4, 21.5, 24.3, 25, 26.9, 15.7, 18, 22.9, 20.8, 25.3, 18.8, 27.7, 33.4, 18.1, 23.6, 11.9, 20.6%”, the growth (0.25 µM, runs of 2016) was “inactive: 26 (2×), 27.7, 23.3 (2×), 23.6 (2×), 31.9, 25.7 (2×), 25.4, 32.2, 36.4, 33.5, 38.9, 32.4, 40, 24, 27.4 (2×), 31.6, 26.1, 26.9 (2×), 17.9 (2×), 17.5, 25.1, 24.9 (2×), 20.2, 18.5, 23.7 (2×), 22.3, 23 (2×), 18.6, 19.2, 25.8 (2×), 22, 40.1, 21.4, 36.2, 18 (2×), 15.8, 24.6, 22.1, 21.8, 22.2, 29.7, 27, 18.9, 30.1, 27.3, 24.3 (2×), 32.9, 26.4, 29.3, 28.8, 28, 27.9, 30.2, 31.1, 16.8, 27.6, 28.5, 33.7, 32, 24.5, 25, 30.7, 34.6%” and the growth (0.25 µM, runs of 2017) was “inactive: 40.9, 38.2, 31.6, 25.3, 22, 23.8, 25.5, 16.2, 23.6, 20.6 (2×), 25.6 (2×), 23.1, 27.6, 27, 22.6 (3×), 20.3 (3×), 24.7, 20.8 (2×), 22.5 (2×), 20.5, 17.7 (2×), 15.5 (2×), 22.3, 15, 16.3, 14.6, 15.8, 19, 18.9, 22.1 (2×), 20.7, 14.2, 18.6 (2×), 26.2, 25.1, 26.9, 24.9 (2×), 29.2, 26.1, 27.4, 25.8, 25.4 (2×), 16.5, 15.3, 21.2, 22.2, 26.8, 18.3, 20.2, 21.8, 18.1, 14, 27.7, 26, 18.8, 15.2, 17.2, 16.8, 12.1% and active: 7.99%”. The growth (0.25 µM, runs of 2018) was “inactive: 21.6 (2×), 22.3, 14, 14.2 (2×), 11, 13.6, 12.3, 15.1, 11.9, 11.5, 26.5, 11.1, 16.2, 16.8, 18.1, 19, 19.2 (2×), 25, 22.5, 24.7, 15.2, 20.5 (2×), 24.3, 20.7 (3×), 22.6, 26.4, 25.3, 18.9 (2×), 24, 26.1, 15, 20, 24.2, 21.8, 17.9, 27.2, 15.9, 21.1, 35.5, 31, 12.7% and active: 9.14%”, the growth (0.25 µM, runs of 2019) was “inactive: 23, 22.1, 19.2 (2×), 25, 27, 29.2 (2×), 13.3, 12, 20.2 (2×), 15.3, 19.7 (3×), 21.9, 23.8 (2×), 21.5, 21.6, 28.9, 26.2, 27.2, 23.7, 28, 23.1, 24, 23.2, 20, 27.1, 24.5, 31, 27.7, 20.6, 25.1, 20.3, 12.3, 14.8% and active: 9.74%” and the growth (0.25 µM, runs of 2020) was “active: 3.91%, 9.7% and inactive: 14.6, 16.5, 17.2, 18.1, 19.4, 21.4, 17.9, 20.8, 20 (2×), 13.6, 18.8, 15.7, 13.9, 26.4, 21.6, 23.7, 21.5, 24.6, 23.6, 12.2, 23.3%”. The growth (0.25 µM, runs of 2021) was “inactive: 10.2, 20.5, 18.8 (2×), 20.8 (3×), 20.9 (2×), 21.1, 21.4, 20.1, 22.5, 19.4, 20.2, 22.3, 20.7, 19.8 (3×), 17.8, 14.8, 10.7, 23 (2×), 25.5, 18.6 (2×), 20.3, 26.2, 19.2, 22.2, 25, 24.5, 11.6, 13.2, 18.1, 13.1, 15.3, 24.9, 17.5, 27.3, 27.8, 26.9% and active: 7.81%”, the growth (0.25 µM, runs of 2022) was “active: 6.04, 8.5, 6.66, 1.2, 8.04, 1.81, 9.42, 8.14% and inactive: 32.2, 39.4, 15.1, 23.2, 24.6, 21.1, 29.8, 27.2, 26.7, 18.6, 25, 27.6, 28.8, 12.4, 28.5, 48, 10.7, 15.9%” and the growth (25 µM, runs of 1991) was “active: -42, -25.4, -34.7, -24.8, -32, -38.7, -29.2, -26.7, -40, -11.5, -27.7, -24.2, 3.9, 5.32, -26, -26.9, -54% and inactive: 11.4%, 12.2%”. For the same compound, the growth (25 µM, runs of 1992) was “active: -8.86, -8.2, 0.899, -30.3 (2×), -25.5, 3.25, -23.6 (2×), -15.7 (2×), -17.7, -25.2, -34.4, -20.3 (2×), -35.7 (2×), -43.1, -20.8, -21.9, -22.2, -39.4, -32.6 (2×), -37.6, -15.9, -11.6, -36, -67, 2.04, -17.5, 3.98, -48.6, -71.7, -43.2, -55.4, -16.7, -13.2, -38.3, -23.1, -28.7 (2×), -27.2 (2×), 6.58, -49.5, -63.1, -45 (2×), -41.2, 2.82, -7.22, -21.4, -37, 3.33, -28.5, -40.5, -25.9, -23.8, -31.4, -27.9, -25.4, -31.3, -11.8, -5.77, -24.7, -6.09, -28.6, -44.8 (2×), -5.16, -39.5, -29.7, -33.1, -53.9, -7.73, -24.2, -34.5, -28.9, -8.14, -43.9, -7.99, -33.9 (2×), 3.34, -8.9, -27.4, -17.9, -27.8, -5.17, -36.6 (2×), -37.2, -9.89, -26.2, -36.9, -34.8, -22, -2.85, -17.2, -19.8, -24, -41.6, -22.5, -28.4, -3.88, -29.3, -23.2, -23.5, 4.45, -21.7, -33.6% and inactive: 18.8, 14.3, 11.4 (2×), 25, 12.5, 39.9, 14, 40%”, the growth (25 µM, runs of 1993) was “active: -21, -5.17, -3.76, -41.3, -20, -34, -4.18, 7.09, -45.7, -38.6 (2×), -2.97, -21.6, -55.8, -0.334, -40.1, -33.5, -25.3, -20.9, -65.1, -27.9, -37.6, -31.1, -26.8, -47.9, -22.9, -23.5, -49.4, -30.6, -37.5, -34.9, -19.4, -25.5, -35, -28.5, -7.35, -48, 0.27% and inactive: 26.5, 13.4, 47.6, 68.4, 16.5, 26.8%” and the growth (25 µM, runs of 1994) was “active: -18.3, -32, 5.14, -2.38, -25.8, 9.9, -20.7, -17.1, -48.2, -22.9, -54.8, -54.6, -37.1, -27.8, -0.906, -2.25, -45.5, -4.01, 9.94, -33.9, 0.0575, -21.3, -41.6, -50.5% and inactive: 48, 14.8, 26.7, 25, 13.6%”. For the same compound, the growth (25 µM, runs of 1995) was “active: -42.6, 0.604, 9.96, -17.9, -4.28, -57.6, -21.1, -20.9, -17.7, -40.8, 0.445, 2.99, -14.7, -27.1, -8.75, -12.8, -26.8, -23, 2.96, -36.9, -16.4, -19.5, -10.4, -38.2, -47, 0.64, 6.12, -9.38, -22, -24.4, 7.9, -59.5, -50.8, -38.5, -49.7, -56.8, -32.8, -51.9, -4.35% and inactive: 10.3%”, the growth (25 µM, runs of 1996) was “active: -31.9, -50.6, -58.9, -40, -6.59, 3.13, -5.73, -23.3, -40.9, -11.4, -35.5, -14.5, -37.8, -64.6, -29.3, -19.3, -51.9, -9.85, -15.4, -53.8, -40.4, 5.79, -45.4, -26.7, -17, -48.8, -56.1, -31.2, -36.1, -21.9, -49.9, -44.5, 9.67, -35.1, 0.896, -23.9, -37.5, 9.34, -100, -34.6, 5.43% and inactive: 18.1, 11.1, 77.3, 27.5, 12.1, 13.4, 68.4%” and the growth (25 µM, runs of 1997) was “active: -29.7, -19.7, -22.5, -45.7, -31.8, -69.1, -51.1, -17.5, -0.524, -19.1, 7.61, -36.2, -7.67, -46.2, -11.1, 5.55, -34.3, 1.34, -45.8, 1.44, -1.04, -22.1, 0.198, -78, -12.2, -27.8, 1.78, 4.21, -27.2, -4.64, 2.95, -10.3, -58.5% and inactive: 15.8%, 78.2%”.
